# The source gives no read counts; variants with many changes may rest on few reads.
# B1: CPEB3 Ribozyme (parent)
# chain: UAACAGGGGGCCACAGCAGAAGCGUUCACGUCGCAGCCCCUGUCAGAUUCUGGUGAAUCUGCGAAUUCUGCUGUAUAUCUC
# Variants of: B1
# Experiment: self-cleavage, relative activity (ratio to wild type); higher = more cleavage; in vitro, sequencing
# Procedure, shortened: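 For each CPEB3 ribozyme variant, relative activity is its cleaved/total read fraction divided by the unmutated ribozyme's. Barcoded error-prone PCR libraries were transcribed by T7 RNA polymerase (5 hours, 37°C) and held in DNase I for 15 min before an EDTA stop, with cleavage occurring throughout. Template-switching reverse transcription and Illumina sequencing were used to read the RNAs. A 5-read minimum applied, and results are the mean of three batches.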
row,Variant,self-cleavage
1,A18G A21G U43A A56U U67C U80C,0.19
2,A18G A21G U51G,0.47
3,A18G A21U A57G,0.32
4,A18G A21U A57G U72C,0.05
5,A18G A21U G30C A35U A47G,0.3
6,A18G A28C A45G U67A,0.14
7,A18G A28C U58A U67A,0.09
8,A18G A28G A47C,0.33
9,A18G A28G A65U,0.43
10,A18G A28G U41G U67A,0.06
11,A18G A28G U43A A57G U72C U80A,0.29
12,A18G A28G U49C U54C U72C A75U U80A,0.23
13,A18G A28G U54A C62A,0.2
14,A18G A28G U58C,0.21
15,A18G A28G U60A G61U C62U U76A,0.1
16,A18G A28G U66C,0.1
17,A18G A28U A35U A64G U72C,0.13
18,A18G A28U A45C U60C G63U U80C,0.05
19,A18G A28U C32G G42A C44U A64U,0.07
20,A18G A28U C34U,0.15
21,A18G A28U U41C U72C,0.32

row,Variant,self-cleavage
1,A18G A35G A45U U49C,0.2
2,A18G A35G A56G A64U U80C,0.38
3,A18G A35G U60A G70C,0.45
4,A18G A35G U80C,1.18
5,A18G A35U A47U,0.22
6,A18G A35U U67A U69C,0.07
7,A18G A45G A64U,0.23
8,A18G A45G A77U,0.43
9,A18G A45G G55C,0.19
10,A18G A45G U58C U66C,0.12
11,A18G A45U A47U,0.26
12,A18G A45U A57G U69A,0.13
13,A18G A45U U49A,0.18
14,A18G A45U U49C,0.13
15,A18G A47G U58C U72A A75U,0.7
16,A18G A47G U60G U74C U78A,0.24
17,A18G A47U U69A,0.22
18,A18G A56G A64C U69A U80G,0.18
19,A18G A56G A65U U72A U78C,0.13
20,A18G A56G U58C U66C,0.17
21,A18G A56G U58C U76C,0.14

row,Variant,self-cleavage
1,A18G A56G U60A A65G,0.31
2,A18G A56G U67C U72A,0.14
3,A18G A57G U58A A64G,0.12
4,A18G A57G U58C U67A U76C,0.14
5,A18G A57G U60C,0.34
6,A18G A57U U67C,0.16
7,A18G A64G U78G C79U,0.77
8,A18G A65G A77G U78C,0.28
9,A18G A65G U69A,0.26
10,A18G A75G U80C,0.46
11,A18G C23A C29U C37A U41A U54C,0.12
12,A18G C23A U31C G36C A56G U69C,0.05
13,A18G C23A U54C U72A C79U,0.28
14,A18G C23U A28C C44G A64U,0.04
15,A18G C27A A28G U54C A57U A75G,0.07
16,A18G C27U A35U,0.47
17,A18G C27U C40A U41C A47G A64G,0.09
18,A18G C29A A56G A77G,0.16
19,A18G C29A A64G A77U,0.15
20,A18G C29A U43C,0.11
21,A18G C29U A35G A47U U48G,0.24

row,Variant,self-cleavage
1,A18G C29U A45G,0.25
2,A18G C29U G42A A57U U58A U69C,0.12
3,A18G C32U A35U C39A U51C,0.14
4,A18G C32U C34A U43C,0.22
5,A18G C32U C39U U49A U60C U80C,0.07
6,A18G C32U C44A U78C,0.42
7,A18G C32U C59U U60A U80C,0.21
8,A18G C32U U48A U60C U66C A75G,0.17
9,A18G C34G G36U,0.08
10,A18G C34U U41C U43A U67C,0.12
11,A18G C34U U48C U49C U67G U72C,0.07
12,A18G C34U U74C,0.62
13,A18G C37G U48C,0.25
14,A18G C37G U48C C79U,0.3
15,A18G C38A U54A G63A A65U U74C A77C,0.05
16,A18G C38U U60C,0.28
17,A18G C39A U51A A65G U78C,0.08
18,A18G C40A A64G,0.18
19,A18G C40A A64G A77U,0.08
20,A18G C40U G52A A56G A64U,0.08
21,A18G C40U G63A,0.36
